Source: patent US20210145806A1, “Methods of Treating Brain Cancer and Related Diagnostic Methods” (Emory University, priority 2019, published 2021)

Columns and labels:
[1] = tested on: SHH-activated MB cells (DAOY, UW228 and ONS-76); assay: Soft agar colony formation assay (CFA); conditions: for concentration at which colony formation is inhibited: composite of DAOY, UW228, ONS-76, compared to vehicle control
[2] = tested on: SHH activated MB cells (DAOY, UW228 and ONS-76); assay: Proliferation of SHH activated human MB cells (mean/composite of all lines); conditions: read-out: IC50, inhibition of proliferation

SMILES | concentration at which colony formation is inhibited [1] | IC50 [2] | inhibition of colony formation, in words [1]
N.N.[Cl][Pt][Cl] [cisplatin] | ≥ 2 µM |  | 
O=c1c(O)c(-c2ccc(O)c(O)c2)oc2cc(O)ccc12 [fisetin, 2-(3,4-dihydroxyphenyl)-3,7-dihydroxy-4H-chromen-4-one] |  | 3.8 µM | inhibited colony formation
CC(NC(=O)C(C#N)=Cc1cccc(Br)n1)c1ccccc1 (centres unmarked) [WP1066, 3-(6-bromopyridin-2-yl)-2-cyano-N-(1-phenylethyl)acrylamide] | ≥ 1.5 µM |  | inhibited colony formation
